Results: PubChem BioAssay AID504845 (National Center for Advancing Translational Sciences (NCATS), 2011)
The campaign covered roughly 390,000 compounds. About 150 (0.038%) were called active. This list was built around the results that the source calls inconclusive (neither active nor inactive); the mix of calls is not that of the screen. Calls follow the shape of the dose curve; as a rule, active = well fitted inhibition curve with a large enough effect; inconclusive = small, poorly fitted or top-dose-only effect; inactive = no such curve, though single readings can be large or run the other way. Potencies beside an inconclusive call are fits to weak or partial responses and may not hold up.

The compounds below were run against Regulator of G-protein signaling 4 (Homo sapiens) (UniProt P49798) (assay: Inhibitors of Regulator of G Protein Signaling (RGS) 4: qHTS). Settings: Transcreener GDP fluorescence polarization, RGS4-accelerated GTP hydrolysis; series mostly up to 114 µM.
How it was run: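 MLSMR compounds (23 nl, pin-transferred) preincubated 10 min at room temperature with a 500nM (2x) first reagent, then RGS4 at 900nM (2x) plus Transcreener GDP mix added; fluorescence polarization (620/688 nm) read before and after 90 min at 30 °C.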
% is scaled to controls: 0 for no effect and ±100 for the full control effect; potency is read from the fitted curve at half-maximal effect; tags tell the direction and shape of the fitted curve.
Also: nearly all actives have a fitted effect of over 75% in size.

Sequence of UniProt P49798 (P49798 whole entry, looked up): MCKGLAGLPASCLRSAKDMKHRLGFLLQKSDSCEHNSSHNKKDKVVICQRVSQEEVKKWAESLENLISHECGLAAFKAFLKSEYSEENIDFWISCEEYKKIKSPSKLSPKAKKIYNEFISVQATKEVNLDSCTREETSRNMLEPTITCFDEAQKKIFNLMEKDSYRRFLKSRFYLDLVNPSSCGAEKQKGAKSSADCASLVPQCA

| SMILES | Potency | activity change, negative = inhibition |
| --- | --- | --- |
| O=C(Nc1ccc2c(c1)CCC2)c1cnc(Cl)c(Cl)c1 | inconclusive: 56.2 µM [inhibitor, partial curve, poor fit] |  |
| COc1cccc(NC(=O)c2nc(S(C)(=O)=O)ncc2Cl)c1 | inconclusive: 79.4 µM [inhibitor, partial curve, poor fit] |  |
| COc1ccc(S(=O)(=O)NC2CCCCC2)cc1-n1cnnn1 | inconclusive: 50.1 µM [inhibitor, partial curve, poor fit] |  |
| Cc1ccc(C(O)c2ccc(-n3ccnc3)cc2)cc1 (stereo not drawn) | inconclusive: 100 µM [inhibitor, single point] |  |
| O=C(/C=C\c1ccccc1OC(=O)c1ccccc1F)c1cc2ccccc2o1 | inactive |  |
| COc1ccccc1NC(CC(=O)c1ccccc1)C(=O)OCC(=O)c1ccc(F)cc1 (stereo not drawn) | inconclusive: 56.2 µM [inhibitor, partial curve, poor fit] |  |
| N#Cc1cc2c(nc1SCC(O)CS(=O)(=O)Cc1ccccc1)CCCC2 (stereo not drawn) | inconclusive: 89.1 µM [inhibitor, single point] |  |
| CN(C)CCCN(C(=O)c1ccco1)c1nc2ccc(Br)cc2s1 | inactive |  |
| CCOc1ccc(NC(=O)Cn2cc(C(=O)c3ccc(OCC)cc3)c(=O)c3cc4c(cc32)OCCO4)cc1 | inactive |  |
| Cc1cccc2cc3c(nc12)SC(=NCC1CCCO1)N(Cc1ccco1)C3 (stereo not drawn) | inconclusive: 28.2 µM [inhibitor, full curve, poor fit] |  |
| CN(C)c1cccc(N=C2C=C(N3CCOCC3)CC(C)(C)C2)c1 | inactive |  |
| COc1ccc(N2CCN(C3CCCN(C(=O)c4cccc(C)n4)C3)CC2)cc1 (stereo not drawn) | inconclusive: 100 µM [inhibitor, single point] |  |
| COc1cccc(C(=O)Oc2ccc3c(C)cc(=O)oc3c2C(C)=O)c1 | inconclusive: 79.4 µM [inhibitor, partial curve, poor fit] |  |
| CC1(C)CC(=O)C(N=Nc2cccc([N+](=O)[O-])c2)=C(O)C1 | inactive |  |
| Cc1ccc(NC(=O)c2nc(S(=O)(=O)Cc3cccc(C)c3)ncc2Cl)cc1 | inconclusive: 17.8 µM [inhibitor, full curve, poor fit] |  |
| CCOC(=O)c1c(Nc2nc(C)c(C(=O)NC)s2)sc(C)c1C | inconclusive: 89.1 µM [inhibitor, single point] |  |
| CNC(=O)c1ccsc1NC(=O)c1sc2ccccc2c1Cl | inconclusive: 20 µM [inhibitor, full curve, poor fit] |  |
| Cc1ccc(S(=O)(=O)Nc2cc(Br)cc3cccnc23)cc1 | inactive |  |
| Cc1ccc(-c2nnn(C(C)C(=O)N3c4ccccc4CCc4ccccc43)n2)cc1 (stereo not drawn) | inactive |  |
| Cn1c2ccccc2c(=O)c2cc(C#CC3=CCCCC3)ccc21 | inconclusive: 50.1 µM [inhibitor, partial curve, poor fit] |  |
| CCN(Cc1ccccc1)c1ccc(/C=N/NS(=O)(=O)c2ccc(C)c([N+](=O)[O-])c2)cc1 | inconclusive: 50.1 µM [inhibitor, partial curve, poor fit] |  |
| CCCC(=O)Nc1cccc(-c2nc3cc(C)c(C)cc3o2)c1 |  | inactive: -8.65% [at 11.4 µM] |
| COc1ccc(S(=O)(=O)Nc2c(F)cccc2F)cc1 | inconclusive: 50.1 µM [inhibitor, partial curve, poor fit] |  |

| SMILES | Potency | activity change, negative = inhibition |
| --- | --- | --- |
| O=c1cc(CSc2nnc(NC3CCCCC3)s2)nc2sccn12 | inactive |  |
| Cc1cc(Nc2ccccc2F)n2nc(Cc3ccc(Cl)cc3)nc2n1 | inactive |  |
| COc1ccc(S(=O)(=O)N2CCN(C)CC2)cc1C(=O)N1CCCCC1 | inconclusive: 79.4 µM [inhibitor, partial curve, poor fit] |  |
| CC(Oc1ccccc1F)C(=O)Nc1ccc2ccccc2c1 (stereo not drawn) |  | inactive: 7.25% [at 11.4 µM] |
| O=C(NCCc1cn2ccccc2n1)c1cc(COc2ccc3ncccc3c2)on1 | inactive |  |
| COc1cc(NC(=S)N2CCN(C(=O)c3ccco3)CC2)c(OC)cc1Cl | inconclusive: 44.7 µM [inhibitor, partial curve, poor fit] |  |
| COc1ccccc1[C@H]1C(c2ccccc2)=NN(c2ccccc2)[C@@H]1CO | inactive |  |
| Cc1ccc(-c2cc(N)n(Cc3ccc(Cl)cc3)n2)cc1 | inconclusive: 89.1 µM [inhibitor, single point] |  |
| CC(=O)Nc1ccc(-c2nnc(SCC(=O)n3c4c(c5ccccc53)CCCC4)n2C)cc1 | inconclusive: 89.1 µM [inhibitor, single point] |  |
| COc1ccccc1NC(=O)CSc1nn2c(=O)c(C)nnc2s1 | inactive |  |
| CC(C)SC1=NC(C)(C)C=C(/C=C/c2c(Cl)cccc2Cl)N1 | inconclusive: 100 µM [inhibitor, partial curve, poor fit] |  |
| CCOC(=O)C(C)Oc1cccc2c(=O)n(CC(=O)NCc3ccc4c(c3)OCO4)ccc12 (stereo not drawn) | inactive |  |
| CSc1ccccc1C(=O)Nc1ncn[nH]1 | inconclusive: 50.1 µM [inhibitor, partial curve, poor fit] |  |
| Cc1sc2ccccc2[n+]1CCC(C)S(=O)(=O)[O-] (stereo not drawn) | inconclusive: 10 µM [inhibitor, full curve, poor fit] |  |
| Cc1ccc(C(=O)NC2CC(C)(C)NC(C)(C)C2)cc1S(=O)(=O)N1CCOCC1 | inactive |  |
| O=C(CSc1nnc(-c2cnccn2)n1Cc1ccco1)c1ccc(Cl)c(Cl)c1 | inconclusive: 89.1 µM [inhibitor, single point] |  |
| N#CCCn1cc(/C=N/O)c(-c2ccc(F)cc2)n1 | inconclusive: 100 µM [inhibitor, single point] |  |
| Fc1ccc(F)c(Nc2c3c(nc4ccc(Cl)cc24)CCC3)c1 | inactive |  |
| CCOC(=O)c1c(NC(=S)NC)sc2c1CC(C)(C)SC2 | inconclusive: 100 µM [inhibitor, single point] |  |
| O=C(Nc1cccn(Cc2c(Cl)cccc2Cl)c1=O)C1CC1 | inconclusive: 17.8 µM [inhibitor, full curve, poor fit] |  |
| Cc1sc(NC(=O)CSC2=NCCS2)nc1-c1ccccc1 | inactive |  |
| COc1ccc(NC(=O)COC(=O)c2cc(SC)ccc2Cl)c(OC)c1 | inactive |  |
| Cc1c(Cl)cccc1NC(=O)N1CCN(C(=O)c2ccco2)CC1 | inconclusive: 89.1 µM [inhibitor, single point] |  |

| SMILES | Potency | activity change, negative = inhibition |
| --- | --- | --- |
| CCCc1cc(=O)[nH]c(SCC(=O)Nc2sc3c(c2C(N)=O)CCCC3)n1 | inconclusive: 89.1 µM [inhibitor, single point] |  |
| C#CCSc1nccc(-c2nn(-c3ccc(C)cc3)ccc2=O)n1 | inconclusive: 70.8 µM [inhibitor, partial curve, poor fit] |  |
| COc1ccc(-c2cc(C(F)(F)F)nc(S(C)(=O)=O)n2)cc1OC | inconclusive: 70.8 µM [inhibitor, single point] |  |
| COc1ccc2c(c1)CCCC(Br)C2=O (stereo not drawn) | inconclusive: 79.4 µM [inhibitor, partial curve, poor fit] |  |
| CN(C)CCN(C(=O)/C=C/c1cccs1)c1nc2ccc(F)cc2s1 | inconclusive: 89.1 µM [inhibitor, single point] |  |
| CCN(CC)c1ccc(N=C2C=CC(=O)C=C2NC(C)=O)cc1 | inconclusive: 17.8 µM [inhibitor, full curve, poor fit] |  |
| CCc1cc(=O)n2c([nH]c3ccccc32)c1C#N | inactive |  |
| CC(=O)c1ccc(OCCCC(=O)Nc2ccc(C)c(S(=O)(=O)N3CCCCC3)c2)cc1 | inactive |  |
| CCc1ccc(S(=O)(=O)ON2C(=O)c3ccccc3C2=O)cc1 | inconclusive: 17.8 µM [inhibitor, full curve, poor fit] |  |
| O=C1c2[nH]nc(-c3ccccc3O)c2C(c2cccc(Br)c2)N1Cc1ccncc1 (stereo not drawn) | inactive |  |
| COc1ccc(CCn2c(C)cc(C(=O)CSc3nnnn3-c3ccccc3)c2C)cc1OC | inconclusive: 17.8 µM [inhibitor, full curve, poor fit] |  |
| CC(=O)c1sc(NC(=O)c2ccc(Cn3cc(Br)cn3)o2)nc1C | inconclusive: 89.1 µM [inhibitor, single point] |  |
| C/C(N)=C(/C#N)C(=O)COC(=O)CC12CC3CC(CC(C3)C1)C2 | inconclusive: 79.4 µM [inhibitor, single point] |  |
| Nc1ccc(N(CCO)CCO)cc1 | inconclusive: 20 µM [inhibitor, full curve, poor fit] |  |
| Cn1nnnc1SCC(=O)Nc1nc(-c2ccccc2)c(-c2ccccc2)o1 | inactive |  |
| Cc1ccc(C(=O)N/N=C/c2cccc(OC(=O)/C=C/c3ccco3)c2)cn1 | inconclusive: 50.1 µM [inhibitor, partial curve, poor fit] |  |
| COc1ccc2[nH]c3c(=O)n(/N=C/c4ccc(OC)c(CN5CCCC5)c4)c(C)nc3c2c1 | inconclusive: 79.4 µM [inhibitor, partial curve, poor fit] |  |
| Cc1onc(-c2c(F)cccc2Cl)c1C(=O)c1ccc(F)cc1 | inconclusive: 89.1 µM [inhibitor, partial curve, poor fit] |  |
| O=C(O)c1ccc[nH]c1=S | inactive |  |
| C#CCOCCOCCOCCNc1nc(N2CCN(C(=O)CCCCCCCCCCNC(=O)[C@H](CCCCN)n3cc(CCO)nn3)CC2)nc(N2CCN(C(=O)CCCCCCCCCCNC(=O)[C@H](CCCCN)n3cc(CCCC(=O)O)nn3)CC2)n1 | inconclusive: 79.4 µM [inhibitor, single point] |  |
| CC(=O)Nc1ccc(Nc2nc(Nc3ccc(Cl)cc3)nc(N3CCOCC3)n2)cc1 | inactive |  |
| Cc1occc(=O)c1OCc1c(F)cccc1Cl | inconclusive: 50.1 µM [inhibitor, partial curve, poor fit] |  |
